Data as given in paper PMC6451091.
This is one part of the list. For part of these data: At the low end of the ranking the order means little. For part of these data: The protein was read in a cell extract, so binding may be indirect.

Tests used:
Details in all cases: 20 mM HEPES pH 7.9, 100 mM NaCl, 1 mM DTT, 0.2 mg/mL BSA, 0.02% Triton X-100, 2% milk, 0.4 mg/mL salmon testes DNA; 1 h; temperature not stated; high values mean tight binding; double strand, one strand shown; sequences stand for … in GCCTAGCAC…GTGCTAGGTCTTGATTCGCTTGACGCTGCTG
PU.1 (IVT) = PU.1 (IVT) (UniProt P17947); test: protein-binding microarray (PBM)
[1] = target: PU.1 (endogenous, THP-1 nuclear extract) (UniProt P17947); test: nuclear extract protein-binding microarray (nextPBM)
[2] = target: T1, FLI1 (endogenous, THP-1 nuclear extract) (UniProt Q01543); test: as above
T1 sequence: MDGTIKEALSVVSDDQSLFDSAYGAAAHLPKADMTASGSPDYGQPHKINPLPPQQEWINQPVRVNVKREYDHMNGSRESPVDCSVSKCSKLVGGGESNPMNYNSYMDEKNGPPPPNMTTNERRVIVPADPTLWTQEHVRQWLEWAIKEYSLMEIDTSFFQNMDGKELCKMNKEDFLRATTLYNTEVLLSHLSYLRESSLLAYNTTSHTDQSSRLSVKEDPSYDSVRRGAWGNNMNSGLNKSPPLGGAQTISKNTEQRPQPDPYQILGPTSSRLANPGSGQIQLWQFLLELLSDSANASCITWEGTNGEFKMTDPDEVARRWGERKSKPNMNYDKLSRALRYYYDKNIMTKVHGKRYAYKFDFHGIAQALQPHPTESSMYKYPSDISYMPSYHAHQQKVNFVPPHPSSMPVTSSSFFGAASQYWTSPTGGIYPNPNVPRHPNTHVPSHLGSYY

Row | Sequence | binding signal (PU.1 (IVT)) [z-score] | binding signal [1] [z-score] | binding signal [2] [z-score]
1 | GTCTTGAGGAAGTGCTGAGC | 3.67 | 3.77 | 1.9
2 | GAAAACAGGAAGTCCAATAG | 7.39 | 6.99 | 4.75
3 | AAGAAGAGGAAGTGGTTTAT | 7.33 | 7.18 | 4.22
4 | AAAATGGGGAAGTGGGGCAT | 6.98 | 7.23 | 2.55
5 | TCCAACAGGAAGTGAATACT | 3.96 | 4.41 | 5.09
6 | GAGGGGAGGAAGTGCCATGG | 3.53 | 3.11 | 2.61
7 | GCTGGGAGGAAGTGAGACCT | 3.28 | 3.36 | 2.56
8 | CAATTGAGGAACTGATGCGG | 4.94 | 5.5 | 1.46
9 | TAAGAGGGGAAGTGGCCACA | 4.43 | 3.79 | 2.02
10 | ATGATAAGGAAGTGAAACAG | 3.54 | 4.03 | 2.31
11 | GAGGAGAGGAAGTGGTTGTT | 4.18 | 4.08 | 3.16
12 | TCTGAGAGGAAGTGAGATAG | 4.07 | 3.95 | 2.88
13 | CGAAAGGGGAAGTCCTAAAC | 6.59 | 6.64 | 3.21
14 | GAAAAGAGGAAGAGTCTCTG | 4.86 | 5.62 | 2.37
15 | ACTAAGAGGAAGTGGTATCT | 5.71 | 6.32 | 3.31
16 | TAGAAGAGGAAGTCAGGAGT | 5.21 | 6.08 | 2.91
17 | AAAAAGAGGAAGTCTGGTGT | 8.02 | 7.47 | 3.91
18 | CAAAAGGGGAAGTGCTAAAC | 7.7 | 7.16 | 3.29
19 | AAAAAGAGGAAGTACATTAA | 8.68 | 7.54 | 4.22
20 | TAAAGGAGGAAGTGTCAGCA | 5.3 | 5.59 | 2.56
21 | GGAGGAAGGAAGTGAGCAGA | 2.05 | 2.19 | 2.04
22 | TCAAAGAGGAAGTGACATTT | 7.03 | 6.84 | 3.73
23 | GGAAGGAGGAAGTCAGGGGC | 4.69 | 5.38 | 2.65
24 | AAAAAGGGGAAGTGTGCTGC | 8.33 | 7.53 | 3.55
25 | GAAAACAGGAAGTCCCATAC | 7.27 | 7.17 | 4.53

Row | Sequence | binding signal (PU.1 (IVT)) [z-score] | binding signal [1] [z-score] | binding signal [2] [z-score]
26 | CAGAAAGGGAAGTGGTGGGC | 4.1 | 4.85 | 2.11
27 | GAAAAGGGGAAATGGTTAAA | 5.4 | 5.31 | 2.23
28 | CAAAAAGGGAAGTGGATGCA | 6.45 | 6.6 | 3.22
29 | CAAATGAGGAACTTATGCGG | 6.39 | 6.57 | 2.31
30 | AGAAAAAGGAAGTGATGTAC | 6.23 | 6.14 | 3.15
31 | GAAATGAGGAAATGAATGGG | 4.97 | 5.14 | 2.31
32 | GAAAACAGGAACTGGTAATT | 5.84 | 6.23 | 2.67
33 | AGAAAGGGGAAGTCCAATAG | 6.98 | 7 | 2.88
34 | CAAAAAGGGAAGTAGATGCT | 6.67 | 6.72 | 2.61
35 | CCGATGGGGAAGTGGTGAGC | 4.44 | 4.93 | 1.34
36 | TGAATGAGGAAGTGCAACCA | 6.31 | 6.97 | 2.72
37 | CAAAAGGGGAAGTGCTTCAC | 7.35 | 7.13 | 3.92
38 | AGAAAGGGGAACTCGGCCAC | 4.66 | 5.5 | 1.4
39 | TAGAAGAGGAACTGCTGCCC | 3.92 | 4.31 | 0.878
40 | GAGAAGAGGAAATGAGTGTG | 2.61 | 2.77 | 2.7
41 | TGAAAAGGGAAGTGGAAAAA | 5.97 | 6.09 | 2.91
42 | GAAAAGAGGAAGTCAAATTT | 8.44 | 7.43 | 4.66
43 | CAGAAAGGGAAGTCCAAGAT | 3.75 | 4.34 | 1.65
44 | TAGAGCAGGAAGTGACTGAT | 2.69 | 2.85 | 4.19
45 | TGGAAAGGGAAGTGACTCTC | 4.88 | 5.11 | 2.01
46 | GGTTTGAGGAAGTGGTTTGA | 6.58 | 6.72 | 2.94
47 | TAAATGAGGAAATGGGAGCT | 4.39 | 4.62 | 1.98
48 | TGGAAGAGGAAGTGGCTAAC | 5.89 | 6.81 | 3.51
49 | GAAAAGAGGATGTGGATCTG | 3.52 | 3.81 | 1.87
50 | GCAAAGAGGAAGTCACGGAA | 6.38 | 6.33 | 4.3

Row | Sequence | binding signal (PU.1 (IVT)) [z-score] | binding signal [1] [z-score] | binding signal [2] [z-score]
51 | TTTAAAGGGAAGTGGCTGTA | 3.74 | 3.96 | 2.02
52 | GAAAACAGGTAGTCCCATAG | 1.64 | 1.62 | 0.287
53 | AAGGATGGGAAGTACTGTGG | 2.42 | 2.18 | 1.04
54 | GAAAAGAGGAACTGGGTAGT | 7 | 6.95 | 3.07
55 | GAAAAAAGGAAGTCCCATAG | 5.66 | 5.85 | 2.43
56 | ACAAAACGGAACTGTGCCCC | 2.12 | 2.21 | 1.81
57 | AAATAAAGGAAGTGTGCTGC | 4.45 | 4.36 | 2.38
58 | AATAAAGGGAAGTGTGGTGA | 5.01 | 5 | 1.83
59 | GAGAAGGGGAAGTGACCTTA | 6.07 | 6.62 | 3.41
60 | GCCGGGAGGAAGTGCCCGAC | 3.47 | 3.65 | 2.94
61 | TAAGAGAGGAAGTCATGCCA | 3.58 | 3.43 | 2.26
62 | TGAAAGAGGAAGTCCAACCA | 6.97 | 6.92 | 3.72
63 | CAGAAAAGGAAGTGTGGTGC | 3.29 | 2.96 | 2.34
64 | CTCTAGAGGAAGTGCAACCC | 3.29 | 3.39 | 2.64
65 | AAAATGAGGAACTGTGAAAT | 6.41 | 6.83 | 1.62
66 | TGAAAGAGGAAGTGCAACCC | 7.18 | 7.2 | 3.72
67 | TAGAAGAGGAAGTGAAGAGA | 6.29 | 6.54 | 3.6
68 | CTGGAGAGGAAGTGGAGAAA | 3.66 | 3.96 | 2.94
69 | TGGAAGGGGAAGTGGTGGTG | 5.36 | 5.57 | 2.56
70 | CAGGGGAGGAAGTGATTGCG | 3.92 | 3.39 | 3.17
71 | GATAAGAGGAAGTCCCCTGT | 5.69 | 6.43 | 2.98
72 | AGGGAAGGGAAGTGGAATCC | 2.76 | 2.57 | 1.77
73 | TGAAAGAGGAAGTGTAACCA | 7.2 | 7.12 | 3.69
74 | GTAAACAGGAAGTCCCATAG | 5.74 | 6.53 | 4.86
75 | CGAAAGGGGAAATGCTAAAC | 3.64 | 3.59 | 1.96

Row | Sequence | binding signal (PU.1 (IVT)) [z-score] | binding signal [1] [z-score] | binding signal [2] [z-score]
76 | TCAAGAAGGAAGTGCCAAAT | 3.31 | 3.17 | 2.04
77 | AGAAAGAGGAAGACTAGTGT | 3.78 | 3.73 | 1.46
78 | AAAATCAGGAACTGGGTGGA | 3.7 | 4.16 | 1.46
79 | GGAAAGAGGAAGTCTGCAGA | 7.29 | 6.97 | 3.1
80 | CAAAAGGGGAAGTCGGGCGG | 7.32 | 7.05 | 3.15
81 | GAGGGGAGGAACTGGCAGTG | 0.922 | 1.38 | 0.57
82 | ATTTAGAGGAACTGGGCTTG | 2.86 | 3.08 | 0.878
83 | ACAATAAGGAAGTGACAGTG | 4.84 | 5.01 | 2.27
84 | AAAATGAGGAACTGATGCGG | 6.61 | 6.72 | 2.36
85 | GATTAGAGGAAGTCCTCTGT | 5.25 | 5.36 | 2.46
86 | CCAAAGAGGAAGTCACAGCC | 5.73 | 6.38 | 2.86
87 | GAAAAAGGGAAGTGCCCTGC | 7.25 | 7.12 | 2.96
88 | AGAAACAGGAAGTACTGTGG | 7.84 | 7.22 | 4.91
89 | CAAAAAGGGAAGTGGATACT | 6.35 | 6.85 | 2.77
90 | CCAAAGAGGAAGTGGCATCA | 6.51 | 6.81 | 3.65
91 | AGAAAGAGGAACTGGAAATG | 6.43 | 6.68 | 3.57
92 | CAAATGAGGAAATGATGCGG | 4.49 | 4.67 | 2.11
93 | AGAAAAAGGAAGTGGAATTT | 6.29 | 6.7 | 3.28
94 | AGCAAAGGGAAGTGGGGAGA | 2.95 | 2.81 | 1.73
95 | CTGAAGGGGAAGTAAGGGAG | 4.79 | 5.28 | 2.12
96 | AGGAGAGGGAAGTGGGAGGA | 2.54 | 2.72 | 1.47
97 | AGGGAGGGGAAGTGAGGCCG | 3.08 | 3.22 | 1.9
98 | GGAAAAAGGAAGTGATGATT | 5.74 | 5.61 | 3.17
99 | AAAAAGAGGAAGTGCTACTT | 8.88 | 7.32 | 4.45
